Source: the supplement of paper PMC11417369
± gives the standard deviation of the averaged measurements. The list shows a part of the results.

Tested on: PfAP2-I AP2 domain 3 (GST-tagged)
Assay: gcPBM binding intensity (ln(normalized median fluorescence intensity)); higher = stronger DNA binding
How it was run: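 Binding of GST-tagged P. falciparum DNA-binding domains, expressed in E. coli and used at about 25 μg on average, was carried out for 1 h in 1× PBS containing 1% milk, 0.2 mg/ml BSA, 0.5% salmon testes DNA and 0.03% Triton X-100. The target was an Agilent 4 × 180k array of primer-extended double-stranded 36-bp intergenic genomic probes plus negative controls, read with Alexa488 anti-GST antibody at 488 nm. Binding intensity is the highest Masliner-normalised natural-log median intensity across replicate spots of either probe orientation.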

| Sequence | gcPBM binding intensity (ln) |
| --- | --- |
| TAATATCTACATATATGTACATATATATATATATAT [XGTACX_site7979] | 9.11 ± 0.23 |
| TTATATATGTATTAATGTACATAGTTGAGAAAGGTA [XGTACX_site1511] | 8.12 ± 0.54 |
| TACAAAATACAAAAATGTACATAAAAATTTATAAAA [XGTACX_site6861] | 7.78 ± 0.6 |
| TACAGATACGGACACACACACACACCCAGACAAAAA [CACACA_site4432] | 8.3 ± 0.16 |
| ATATTAAAATATAATCGTACAATTAAATTTTTTTTT [XGTACX_site2739] | 7.55 ± 0.44 |
| AATAAATAAAAAATTACACACATATTTATAAATATA [CACACA_site7584] | 7.49 ± 0.46 |
| AAGATAAACTTTTTTAATTAATTTAATTTTTTTTTT [GTGCAC_negctrl_site386] | 7.21 ± 0.67 |
| TTATAATAGTTAATATGTACATATTTAATAAATAAT [XGTACX_site3183] | 7.75 ± 0.3 |
| CCCCCCCACGAACACACACACATACATACCACATAT [CACACA_site7149] | 10.2 ± 0.17 |
| TAAAATAAGTTAAAAAGTACATAATTATAATAAATA [XGTACX_site8108] | 7.58 ± 0.5 |
| CACAAAAATAAATATAAACACACAATAAATAAATAA [CACACA_site8197] | 7.72 ± 0.81 |
| ATATATATATATATTCCACACACACCCAAAAAAAAA [CACACA_site9215] | 9.44 ± 0.33 |
| TTTGTTTTTATTTACACATGCAAAAAAAAAAAAAAA [TGCATGCA_site655] | 8.3 ± 0.73 |
| TATGTGTATAATAAAAGTACATATATTATTATATAA [XGTACX_site8556] | 7.79 ± 0.29 |
| TATTTCGTAATTTAATAATATACAAGAAATATATAT [XGTACX_negctrl_site143] | 7.47 ± 0.45 |
| CATATAATAAAAAATGTACACACATAAGAAAATTTA [CACACA_site8943] | 7.86 ± 0.44 |
| TAAAATAATAAAACAACACACAAATAGTTAAAATAG [CACACA_site1680] | 7.93 ± 0.59 |
| ATTGACGTCATATAAACATGCACATTTTGGATGTTT [TGCATGCA_site985] | 7.82 ± 0.74 |
| TTTTTTTTAAATTGTGGTACACAAATTCATATATAT [XGTACX_site8944] | 8 ± 0.23 |

| Sequence | gcPBM binding intensity (ln) |
| --- | --- |
| TAAATATAATAAGAACAAACAAAATAGTACAATATA [TGCATGCA_negctrl_site364] | 7.97 ± 0.45 |
| GTCATATTATTATTACGTACTTAAATATATAATATA [XGTACX_site3405] | 7.95 ± 0.24 |
| AAAAGAAAAAAAAGTACACACATGTATATTAATCGT [CACACA_site2528] | 8.11 ± 0.67 |
| TGTTAACTTAAAAAAATACCTACGGAAAAATCACAA [TGCATGCA_negctrl_site433] | 7.67 ± 0.64 |
| AAAATGATAATACCAAGTACACATATGAAAAATACA [XGTACX_site6763] | 7.92 ± 0.52 |
| TAAATCATTTATTAAGTGCAATATTCTTTTTGAGAT | 10.3 ± 0.28 |
| TGTTTTCCCTTTAGTGTGCACGTATTTCTATTAACA [GTGCAC_site9847] | 10.5 ± 0.18 |
| TAAAAACATTTAAATTGTACGGAAATAAAAATTTTT [XGTACX_site8225] | 7.71 ± 0.48 |
| ATATAAATATTAAATACACACATTTTTGATTAGGTT [CACACA_site7461] | 7.67 ± 0.36 |
| ATATAATTTGATGGTTAACACACATATATATTATAT [CACACA_site8775] | 7.72 ± 0.48 |
| TCATATAATCAAATATGTACATATTTTCAATTGAAT [XGTACX_site6831] | 7.7 ± 0.47 |
| ATATTTATTTAATGAACACACGATATATTATTTTAT [CACACA_site1602] | 7.79 ± 0.54 |
| TTATTTATTTTTTATACACACAATTATCTTTTTAAG [CACACA_site6162] | 7.8 ± 0.58 |
| ATATAGAATATATTAACATGCAATAAGTAAAGGGGG [TGCATGCA_site1022] | 8.925 ± 0.035 |
| CACTTCATAAAAATTGCACACATATAATAATGTACA [CACACA_site8692] | 8.53 ± 0.32 |
| ACAATGAAATATTCATGTACATATAAATAATAGTGT [XGTACX_site3762] | 7.93 ± 0.42 |
| TTTTACACTTTTTTTTGTACACACTAAAAAGATTAA [XGTACX_site8407] | 8.26 ± 0.39 |
| CAAATCATATATAGCACACAAATTCTTTATTATTAT [CACACA_site2815] | 8.52 ± 0.13 |
| AAAGGTTCATAAAAATGTACATAATTATTTACATGT [XGTACX_site2722] | 7.78 ± 0.61 |

| Sequence | gcPBM binding intensity (ln) |
| --- | --- |
| CTGATCCACATTTATACACACCTCGGTTTGTAGAGA [CACACA_site4393] | 7.76 ± 0.54 |
| AAAATATATAATATTTGTACATATTGATGGCAACAG [XGTACX_site6454] | 7.82 ± 0.48 |
| AATAAAAATATATCCACACACATATATATATATGTA [CACACA_site576] | 7.75 ± 0.35 |
| ATATGAATATATATATGTACTAATTAGTAGTTTACG [XGTACX_site6273] | 8.06 ± 0.45 |
| AGAAATTTACAAATACGTACACACATATATATATAT [XGTACX_site3141] | 9.68 ± 0.51 |
| GAAGATATGTAAAATTGTACATATTATTTTATTTTA [XGTACX_site5302] | 7.31 ± 0.44 |
| TCATAACAACTTTGTGTGCACATAAAACATGTATAT | 10.3 ± 0.42 |
| TATAAGACATGATATATACACACCTTGTTTTAATTT [CACACA_site2266] | 7.56 ± 0.59 |
| TTTTTTTTTTCATTCACACAAAAAAAAAAAATTTAT [CACACA_site5921] | 7.84 ± 0.43 |
| ATTCAAAATTATAGGTGTACGTATTTTTTTTTTTTT [XGTACX_site7177] | 8.12 ± 0.38 |
| TAAATTTATAAATCACGTACATATTTATTTATATTT [XGTACX_site4532] | 7.63 ± 0.35 |
| AGATGATATAATGGCACACAAATATTTTATTATAAA [CACACA_site3553] | 8.09 ± 0.38 |
| ATAATTTCATAATACGTGCACATAATATATAAAAAA | 11.385 ± 0.007 |
| TACTATTTAAAATATGAACACACATTATTTGTTTTA [CACACA_site8870] | 7.47 ± 0.47 |
| CACAAAAATAAACACACACACATATATATTTATTAT [CACACA_site5923] | 7.69 ± 0.41 |
| GGAAACTAAAGGAATAAAACTATGGAAATTAATTAA [CACACA_negctrl_site1647] | 7.41 ± 0.77 |
| TAAATTAAAAGACACACACACAAAAAAAAAAAAAAA [CACACA_site7131] | 8.06 ± 0.39 |
| ATATATATATGTAAGAGTACACAAAAATATGTATGT [XGTACX_site4335] | 9.04 ± 0.15 |
| TTTTGTAGATATGACTGTACATATTTTATACATAAC [XGTACX_site971] | 7.81 ± 0.47 |
